Results taken from the supplement of paper PMC4723716.
± gives the uncertainty stated by the source. The full ranking holds about 9,900 compounds; the median of “viability index relative to DMSO control” is about 1, and the lowest 2% start at about 0.85. The list shows a part of the results.

Tested on: Plasmodium falciparum NF54 stage V gametocytes
Assay: viability index relative to DMSO control (fraction); higher = less gametocyte killing
Settings: 2.5 µM, incubation time: 72 h
Method: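 Broad DOS informer set and blood-stage-active DOS compounds screened in duplicate at 2.5 µM against P. falciparum NF54 stage V gametocytes with the serum-free one-step SaLSSA (1536-well): 72 h at 37 °C under low oxygen, then saponin lysis and MitoTracker Red CMXRos staining, with high-content imaging. Viability index = viable-object count divided by the plate mean of DMSO wells (0 = killed, about 1 = inactive).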

[1] = library set: Broad Institute DOS

## C/C=C/c1ccccc1[C@@H]1[C@H](C#N)N(C(C)=O)[C@H]1CO
[1]
  viability index: 1.14 ± 0.039

## C[C@H](CO)N1C[C@H](C)[C@H](CN(C)Cc2ccccc2)Oc2ccc(NC(=O)Nc3ccccc3)cc2C1=O
[1]
  viability index: 1.11 ± 0.092

## O=C(CC(F)(F)F)N1C[C@@H]2[C@H](c3ccccc31)[C@H](CO)N2Cc1cccnc1
[1]
  viability index: 1.03 ± 0.012

## Cc1cccc(-c2ccc([C@@H]3[C@H](CO)N4CCCCN(S(=O)(=O)c5ccccc5F)C[C@@H]34)cc2)c1
[1]
  viability index: 0.884 ± 0.06

## COc1cccc(NC(=O)Nc2ccc3c(c2)C(=O)N(C)C[C@@H](OC)[C@@H](C)CN[C@H](C)CO3)c1
[1]
  viability index: 1.026 ± 0.01

## CCCNC(=O)N1C[C@@H](O)COC[C@@H]2O[C@H](CC(=O)OC)CC[C@H]21
[1]
  viability index: 1.09 ± 0.0072

## O=S(=O)(c1ccccc1)N1C[C@H]2[C@@H](c3ccccc31)[C@@H](CO)N2Cc1ccccn1
[1]
  viability index: 1.05 ± 0.091

## COCC(=O)Nc1ccc2c(c1)C(=O)N(C)C[C@@H](OC)[C@H](C)CN(CCc1ccccc1)[C@@H](C)CO2
[1]
  viability index: 1.07 ± 0.029

## COc1cccc(S(=O)(=O)N[C@@H]2CC[C@@H](CC(=O)NC3Cc4ccccc4C3)O[C@H]2CO)c1
[1]
  viability index: 0.964 ± 0.12

## COCCN(C[C@@H]1[C@@H](c2ccccc2)[C@@H](CO)N1C(C)=O)C(=O)c1cccnc1
[1]
  viability index: 1.03 ± 0.041

## CCCC(=O)Nc1ccc2c(c1)C(=O)N(C)C[C@@H](OC)[C@H](C)CN(C(=O)c1ccccn1)[C@H](C)CO2
[1]
  viability index: 1 ± 0.056

## O=C(C[C@@H]1CC[C@H]2[C@@H](COC[C@@H](O)CN2Cc2ccc(C(F)(F)F)cc2)O1)N1CCc2ccccc2C1
[1]
  viability index: 1.091 ± 0.0047

## COc1ccc(NC(=O)N[C@@H]2CC[C@H](CCNC(=O)CN3CCOCC3)O[C@H]2CO)cc1
[1]
  viability index: 0.972 ± 0.1

## C/C=C/c1ccc([C@H]2[C@@H](CO)N(C(=O)Nc3ccccc3F)[C@H]2C#N)cc1
[1]
  viability index: 1.13 ± 0.026

## O=C(c1ccc(F)cc1)N1CC(=O)N2[C@@H](CO)[C@@H](c3ccc(C#CCC4CCCC4)cc3)[C@@H]2C1
[1]
  viability index: 0.967 ± 0.031

## CCC(=O)N1CC(=O)N2[C@H](CO)[C@@H](c3ccc(C#CCC(C)C)cc3)[C@H]2C1
[1]
  viability index: 0.989 ± 0.038

## C[C@@H]1CN([C@H](C)CO)C(=O)CCCn2cc(nn2)CO[C@@H]1CN(C)C(=O)Nc1cccc(C(F)(F)F)c1
[1]
  viability index: 1.09 ± 0.014

## NCC[C@@H]1CC[C@@H](NC(=O)Cc2ccncc2)[C@@H](CO)O1
[1]
  viability index: 1.16 ± 0.097

## C[C@H](CO)N1C[C@H](C)[C@@H](CN(C)C(=O)NC2CCCCC2)Oc2ccc(N(C)C)cc2CC1=O
[1]
  viability index: 0.99 ± 0.085

## Cc1noc(C)c1NC(=O)N(C)C[C@@H]1Oc2ccc(NC(=O)Cc3cn(C)c4ccccc34)cc2CC(=O)N([C@H](C)CO)C[C@H]1C
[1]
  viability index: 0.95 ± 0.21

## CC(C)[C@@H]1COCn2nncc2CCCC(=O)N1
[1]
  viability index: 0.884 ± 0.0094

## Cc1ccc(S(=O)(=O)Nc2ccc3c(c2)C(=O)N([C@@H](C)CO)C[C@@H](C)[C@H](CN(C)S(=O)(=O)c2cccs2)OCCCC[C@@H](C)O3)cc1
[1]
  viability index: 1.13 ± 0.086

## COc1ccc2c3c([C@@H](CO)N(C[C@]33CN(C3)S(=O)(=O)c3ccccc3)C(C)=O)n(C)c2c1
[1]
  viability index: 0.956 ± 0.031

## COc1ccc2c3c([nH]c2c1)[C@@H](CO)N(C[C@]31CN(C1)C(=O)Nc1c(C)noc1C)C(=O)Nc1ccc(F)cc1
[1]
  viability index: 0.948 ± 0.092

## CCCNC(=O)Nc1ccc2c(c1)OC[C@@H](C)N(Cc1ccccc1)C[C@@H](C)[C@H](OC)CN(C)C2=O
Library set: Broad Institute Blood Stage
  viability index: 0.942 ± 0.039

## CCCN(C[C@H]1N[C@H](CO)[C@@H]1c1ccccc1)C(=O)COC
[1]
  viability index: 1.061 ± 0.0096

## C[C@@H]1CCCCO[C@H](CN(C)C(=O)Nc2ccc(C(F)(F)F)cc2)[C@H](C)CN([C@@H](C)CO)C(=O)c2cc(NS(=O)(=O)c3cn(C)cn3)ccc2O1
[1]
  viability index: 1.08 ± 0.041

## C[C@H]1CN([C@@H](C)CO)C(=O)c2cc(NC(=O)C3CC3)ccc2O[C@@H]1CN(C)S(=O)(=O)c1ccccc1
[1]
  viability index: 0.986 ± 0.061

## COc1ccc(S(=O)(=O)Nc2ccc3c(c2)C(=O)N([C@@H](C)CO)C[C@H](C)[C@H](CN(C)S(=O)(=O)c2ccc(Cl)cc2)OCCCC[C@H](C)O3)cc1
[1]
  viability index: 0.989 ± 0.11

## COCC#Cc1ccc([C@H]2[C@@H](CO)N3C(=O)CN(C(=O)C4CCCCC4)C[C@@H]23)cc1
[1]
  viability index: 1.03 ± 0.058

## COCCNC(=O)C[C@H]1CC[C@H]2[C@H](COc3ccc(NC(=O)Nc4cccc(F)c4)cc3C(=O)N2C)O1
[1]
  viability index: 1.09 ± 0.098

## CO[C@H]1CN(C)C(=O)c2cc(NC(=O)C3CC3)ccc2OC[C@@H](C)N(Cc2cc(F)ccc2F)C[C@H]1C
[1]
  viability index: 0.943 ± 0.04

## C[C@@H]1CCCCO[C@H](CN(C)S(=O)(=O)c2ccc(F)cc2)[C@H](C)CN([C@@H](C)CO)C(=O)c2cc(N(C)C)ccc2O1
[1]
  viability index: 1.06 ± 0.041

## O=C(NC[C@@H]1[C@@H](c2ccccc2)[C@@H](CO)N1Cc1cccnc1)c1ccccn1
[1]
  viability index: 1.03 ± 0.052

## CCS(=O)(=O)Nc1ccc2c(c1)C(=O)N(C)[C@H]1CC[C@@H](CC(=O)N[C@H]3CCN(Cc4ccccc4)C3)O[C@@H]1CO2
[1]
  viability index: 1.12 ± 0.17

## N#C[C@@H]1[C@H](c2ccc(-c3cccc(F)c3)cc2)[C@@H](CO)N1C(=O)CN1CCOCC1
[1]
  viability index: 0.984 ± 0.13

## CO[C@H]1CN(C)C(=O)c2cc(NC(=O)NC3CCCCC3)ccc2OC[C@H](C)N(CC2CCOCC2)C[C@@H]1C
[1]
  viability index: 1.05 ± 0.026

## CO[C@@H]1CC[C@H]2CCOc3c(C#N)cccc3C(=O)N(C)CCCC(=O)N(C)C[C@H]1O2
[1]
  viability index: 1.01 ± 0.046

## O=C(CC1CC1)N1CC2(C1)[C@H](c1ccccc1)[C@H](CO)N2Cc1ccccn1
[1]
  viability index: 1.07 ± 0.12

## CC(=O)N1[C@H](CO)[C@@H](c2ccccc2)C12CN(S(=O)(=O)c1ccccc1)C2
[1]
  viability index: 1.11 ± 0.03

## COCC#Cc1ccc([C@@H]2[C@@H](CO)N3C(=O)CN(C(=O)c4ccncc4)C[C@H]23)cc1
[1]
  viability index: 1.12 ± 0.087

## COc1ccc([C@H]2C/C=C/C[C@H](C)Oc3ccccc3C(=O)N(C)[C@@H](Cc3ccccc3)C(=O)N2)c(OC)c1.COc1ccc([C@H]2C/C=C\C[C@H](C)Oc3ccccc3C(=O)N(C)[C@@H](Cc3ccccc3)C(=O)N2)c(OC)c1
[1]
  viability index: 0.861 ± 0.046

## C[C@H]1CN([C@@H](C)CO)C(=O)Cc2cc(NS(=O)(=O)c3cccs3)ccc2O[C@H]1CN(C)CC1CCCCC1
[1]
  viability index: 1.02 ± 0.14

## CN(C[C@H]1N[C@@H](CO)[C@@H]1c1ccccc1)C(=O)c1ccccn1
[1]
  viability index: 1.1 ± 0.059

## O=C(NCC[C@@H]1CC[C@@H](NS(=O)(=O)c2ccc(F)cc2)[C@H](CO)O1)c1ccc2c(c1)OCO2
[1]
  viability index: 0.973 ± 0.045

## CNC[C@H]1OCCCC[C@@H](C)Oc2ccc(N)cc2C(=O)N([C@H](C)CO)C[C@H]1C
[1]
  viability index: 1.16 ± 0.2

## C[C@@H]1CCCCO[C@H](CN(C)C(=O)Nc2ccccc2)[C@H](C)CN([C@H](C)CO)C(=O)c2cc(NC(=O)Nc3ccccc3)ccc2O1
[1]
  viability index: 0.966 ± 0.095

## COc1cccc(CN2C[C@]3(CN(CC4CCOCC4)C3)c3c([nH]c4cc(OC)ccc34)[C@H]2CO)c1
[1]
  viability index: 1.09 ± 0.1

## O=C(Nc1cccc(F)c1)N1C[C@@H]2[C@H](c3ccccc31)[C@H](CO)N2C(=O)Cc1ccccn1
[1]
  viability index: 1.05 ± 0.095

## CCC(=O)Nc1ccc2c(c1)C(=O)N(C)C[C@H](OC)[C@H](C)CN(C(=O)Cc1cccnc1)[C@H](C)CO2
[1]
  viability index: 1.07 ± 0.02

## C[C@H](CO)N1C[C@H](C)[C@@H](CN(C)Cc2ccccc2)OCc2cn(nn2)CCCC1=O
[1]
  viability index: 1.01 ± 0.04

## CO[C@@H]1CN(C)C(=O)c2cc(NC(=O)Nc3cc(F)ccc3F)ccc2OC[C@@H](C)NC[C@H]1C
[1]
  viability index: 1.105 ± 0.0072

## O=S(=O)(c1ccc(F)cc1)N1C[C@@H]2[C@H](c3ccccc31)[C@@H](CO)N2Cc1ccccc1Cl
[1]
  viability index: 0.898 ± 0.077

## CCCC(=O)Nc1ccc2c(c1)C(=O)N(C)[C@H]1CC[C@H](CC(=O)N3CCCCC3)O[C@@H]1CO2
[1]
  viability index: 1.05 ± 0.091

## CCc1cnc(N2[C@@H](C#N)[C@H](c3ccc(C#Cc4ccccc4F)cc3)[C@@H]2CO)s1
[1]
  viability index: 0.959 ± 0.07

## C[C@@H](NC(=O)C[C@@H]1C[C@@H]2c3cc(NS(=O)(=O)c4ccc(F)cc4)ccc3O[C@@H]2[C@H](CO)O1)c1ccccc1
[1]
  viability index: 1 ± 0.023

## O=C(C[C@@H]1C=C[C@H](NC(=O)C2CCC2)[C@@H](CO)O1)NC1CCCCC1
[1]
  viability index: 1.03 ± 0.031

## C/C=C/c1ccc2n(c1=O)C[C@@H]1[C@@H](CO)[C@H](C(=O)N3CCOCC3)[C@H]2N1CC1CCCC1.C/C=C\c1ccc2n(c1=O)C[C@@H]1[C@@H](CO)[C@H](C(=O)N3CCOCC3)[C@H]2N1CC1CCCC1
[1]
  viability index: 1 ± 0.062

## C[C@H](CO)N1C[C@H](C)[C@@H](CN(C)C(=O)Nc2ccc(C(F)(F)F)cc2)Oc2ncc(C3=CCCC3)cc2C1=O
[1]
  viability index: 1.07 ± 0.011

## COc1ccc2c3c([nH]c2c1)[C@@H](CO)N(Cc1ccc(F)cc1)C[C@]31CN(C)C1
[1]
  viability index: 0.936 ± 0.018

## CCC(=O)N1C[C@@H](C)[C@H](OC)CN(C)C(=O)c2cc(NC(=O)Nc3ccc(Cl)cc3)ccc2OC[C@@H]1C
[1]
  viability index: 1.03 ± 0.0041

## CS(=O)(=O)N1[C@H](CO)[C@@H](c2ccccc2-c2ccccc2F)[C@@H]1C#N
[1]
  viability index: 1.17 ± 0.081

## CN1C(=O)c2cc(NC(=O)Nc3ccc(Cl)cc3)ccc2OC[C@@H]2O[C@@H](CC(=O)NCCN3CCCCC3)CC[C@@H]21
[1]
  viability index: 0.993 ± 0.13

## CO[C@H]1CN(C)C(=O)c2cc(NC(C)=O)ccc2OC[C@H](C)N(C(=O)Cc2ccccn2)C[C@H]1C
[1]
  viability index: 1.15 ± 0.084

## CC(C)(C)[S@](=O)N1Cc2cc(C(=O)N3CCOCC3)nc(-c3cccc(-c4ccccc4F)c3)c2[C@@H]1CCO
[1]
  viability index: 1.07 ± 0.044

## CN1C(=O)c2cc(NC(=O)Cc3cccs3)ccc2OC[C@H]2O[C@H](CC(=O)N[C@@H]3CCN(Cc4ccccc4)C3)CC[C@@H]21
[1]
  viability index: 1.1 ± 0.11

## COc1ccc(C[C@@H]2CCn3cc(nn3)COC[C@@H](c3ccccc3)NC2=O)cc1
[1]
  viability index: 1.02 ± 0.013

## COc1ccc(C(=O)N2C[C@@H]3[C@H](c4ccccc42)[C@@H](CO)N3C(=O)NC(C)C)cc1
[1]
  viability index: 1.06 ± 0.12

## N#C[C@H]1[C@@H](c2ccccc2)[C@H](CO)N1C(=O)c1cc(Cl)cc(Cl)c1
[1]
  viability index: 1.1 ± 0.14
